# Results: ChEMBL document CHEMBL4888484, “Replenishing the malaria drug discovery pipeline: Screening and hit evaluation of the MMV Hit Generation Library 1 (HGL1) against asexual blood stage Plasmodium falciparum ,using a nano luciferase reporter read-out” (2022)
# In all, about 150,000 compounds went through this assay and about 540 (0.36%) showed an effect of 50% or more. This is one part of the list.
# Test system: Plasmodium falciparum
# Test: Primary screen in NF54 nanoGlo assay, in single point, at 2uM, 72h; a lower Z score goes with more inhibition
# Format: functional, Erythrocyte
# Conditions: timepoint 72 hour
SMILES,% Inhibition [%],Z score
CC(C)CC(=O)N1CC[C@@H](CC(=O)O)[C@@H](Cc2nc3ccccc3n2C)C1,-7,0.88
CCOC(=O)C(C)(C)c1csc([C@H](C)OC)n1,5,-0.46
CC(=O)N(CCN1CCOCC1)[C@H]1CCN(C(=O)C2CCCC2)C1,-2,0.45
CC(C)NC(=O)[C@H](C)Oc1ccc(O)cc1,2,-0.27
O=C(CCC1CCC1)NS(=O)(=O)[C@H]1CCOC1,-12,2.24
C[C@@H](NC(=O)NCCc1ccnn1C)c1cc2ccccc2o1,-2,0.24
CCOc1cc(CNCc2ccncc2)ccc1OCc1ccc(Cl)cc1,-8,0.98
Cc1noc(C)c1C(=O)OC(C(=O)N1CC(C)CC(C)C1)C(C)C (stereo unspecified),-5,0.57
N#Cc1nccnc1N1CCCN(C(=O)Cc2cccc(F)c2)CC1,-9,1.17
Cc1nonc1C(=O)NC(c1cnn(C)c1)[C@H]1C[C@H](O)C1 (stereo partly specified),-7,1.39
CC1(C)[C@@H](NC(=O)Nc2ccnnc2)[C@@H]1c1ccccc1,-13,1.29
c1cnc(N2CCN(Cc3nc(-c4ccncc4)no3)CC2)nc1,2,-0.29
CC1C(C)S(=O)(=O)CCN1CC1CC1 (stereo unspecified),-6,0.68
Cc1ccc2c(c1)CCCN2C(=O)c1ccc2c(c1)NC(=O)CO2,-10,1.7
CCn1nc(C)c(CNc2nc(C)no2)c1C,-2,0.42
Cc1nn(-c2ccccc2)c2c1[C@@H](c1ccc(Cl)cc1)N(c1ccccc1)C(=O)N2,-13,2.46
C[C@H]1Cc2cc(-n3cnnc3)ccc2O1,-12,1.62
O=C(c1ccc2c(c1)CN(CC1CCCCC1)CCO2)N1CCCC1,-6,0.9
CCCN(Cc1c(-c2ccccc2)nn(C)c1N(C)C)C(=O)c1ccc(C)cc1,-2,0.46
C[C@@H](O)CNC(=O)NCc1cc(Cl)cc(Cl)c1OC(F)F,-13,2.38
Cc1ccc(N(C(=O)COCc2ccnn2C)C2CCCCC2)nc1,-31,3.13
CCCCn1nc(C2CC2)nc1CCCn1cncn1,-6,1.11

SMILES,% Inhibition [%],Z score
Cc1cccc(C(=O)Nc2ccnn2Cc2c(Cl)cccc2Cl)n1,-2,0.33
CCC(CC)C(=O)N1CCC(C(=O)O)C2CCCCC21 (stereo unspecified),-2,0.46
Cc1cccc(OCC(=O)N2CCCN(c3cc(=O)n(C)c(=O)n3C)CC2)c1,1,-0.17
CCC[C@H]1C=CCN1C(=O)CCn1ccnc1CC,-12,1.25
CN(C)c1ccccc1NC(=O)Cn1ccc(=O)[nH]c1=O,-5,0.92
O=C(CN1CCOC1=O)N1CCC2(CC1)CC(=O)N(Cc1ccccc1)C2,3,-0.4
Cc1cc(C)cc(OCc2cc(=O)n3ccccc3n2)c1,-1,0.09
COCCCN(Cc1c(C)nn(-c2ccccc2)c1N1CCN(C)CC1)C(=O)Nc1ccc(Cl)c(Cl)c1,10,-0.95
CC[C@H](OC)C(=O)NC1(CN2CCCCC2)CCCCC1,-6,0.65
O=C(COc1ccc2ccccc2c1)N1CCC2(CC1)CC2(F)F,9,-1.2
Cc1ccc(N(C)S(=O)(=O)c2cc(C)oc2C)c(C)c1,-1,0.27
COc1ccc(C(=O)N2CCC[C@H](C(=O)Nc3cc(F)cc(F)c3)C2)c2ccccc12,6,-0.58
C[C@@H](C(=O)Nc1cccc(Cl)c1)N1CCC(c2nnc3n2CCC3)CC1,-5,1.1
CC(C)(C)N1C[C@@H](c2nc3ccccc3n2Cc2ccc3ccccc3c2)CC1=O,-5,0.63
CC(=O)N(C(C)=O)c1c(-c2nnc(C)o2)sc2nc(C)cc(C)c12,13,-1.57
Cc1nc(CC(=O)N2CCc3cc(C(=O)N(C)C)n(C)c3C2)cs1,-4,0.77
COCc1noc(CN2CC(C)OCC2c2ccccc2)n1 (stereo unspecified),0,0.01
CNC(=O)c1cccc(C(=O)N2Cc3ccccc3N(C)C[C@@H]2C)c1,-21,3.97
CCc1ccc(O)c(NC(=O)C2([C@]3(O)CCCNC3)CCC2)c1,-12,1.31
Cc1cc(C(=O)N(CCN(C)C)C2CCCCC2)nc(C)n1,3,-0.54
Cc1cnc(COC(=O)c2scnc2C)o1,11,-1.53
